# Data reported in the supplement of paper PMC10600219.
# Where a name gives a salt, the structure may show the parent alone. Over roughly 2,800 compounds, “cell viability relative to vehicle” has its median near 1.1; the lowest 2% begin near 0.19. Some of the results follow.
# Tested on: NCI-H2228 parental
# Assay: cell viability relative to vehicle (fraction of vehicle); NCI-H2228 is an ALK-positive lung cancer line and DTP means drug-tolerant persister; higher = less growth inhibition
# Conditions: 100 nM; treatment time 6 days
# In short: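 Each value is viability relative to vehicle-treated cells, measured as ATP with the CellTiter-Glo 3D Cell Viability Assay. Parental NCI-H2228 cells and drug-tolerant persisters (1000 nM targeted drug, 13 days) in 384-well plates received the 3114-agent TargetMol anti-cancer compound library at 100 nM, or DMSO, and were read 6 days later.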
row,SMILES,cell viability
1,O=c1[nH]c(=O)n([C@H]2C[C@H](O)[C@@H](CO)O2)cc1F [Floxuridine],0.197
2,C/C(=N\NC(=S)N1CCC1)c1ccccn1,0.136
3,CC1=C(/C=C/C(C)=C/C=C/C(C)=C/C(=O)Nc2ccc(O)cc2)C(C)(C)CCC1 [Fenretinide],0.746
4,NC(=O)c1ncn([C@@H]2O[C@H](CO)[C@@H](O)[C@H]2O)c1N [AICAR (Acadesine)],1.4
5,Nc1ncnc2c1ncn2[C@@H]1O[C@H](COP(=O)(O)O)[C@@H](O)[C@H]1O [Adenosine 5'-monophosphate],1.22
6,O=C(O)c1cc(O)c2c(c1)[C@H]([C@H]1c3cc(C(=O)O)cc(O)c3C(=O)c3c(O[C@@H]4O[C@H](CO)[C@@H](O)[C@H](O)[C@H]4O)cccc31)c1cccc(O[C@@H]3O[C@H](CO)[C@@H](O)[C@H](O)[C@H]3O)c1C2=O [Sennoside A],1.02
7,CC(=O)Oc1cc(C(C)C)c(OCCN(C)C)cc1C [Moxisylyte hydrochloride],1.15
8,CC(c1cc2ccccc2s1)N(O)C(N)=O (stereo not drawn) [Zileuton],1.12
9,C[C@@H]1C(=O)O[C@H]2C[C@@]34[C@H]5C[C@@H](C(C)(C)C)[C@]36[C@@H](OC(=O)[C@@H]6O)O[C@@]4(C(=O)O5)[C@]21O [Ginkgolide A],1.1
10,CC1=C(C(=O)OC2CCCCC2)C(c2ccc([N+](=O)[O-])cc2)C2=C(CC(C)(C)CC2=O)N1 (stereo not drawn),1.11
11,FC(F)(F)c1ccc(/C=C/c2nc(COc3ccc(CCCCn4ccnn4)cc3)co2)cc1 [Mubritinib],0.811
12,Nc1ccn(C[C@@H](CO)OCP(=O)(O)O)c(=O)n1 [Cidofovir],1.17
13,O=C1c2c(O)cc(O)cc2OC(c2ccc(O)c(O)c2)C1O (stereo not drawn) [Taxifolin],1.08
14,CN(C)CCCOc1nn(Cc2ccccc2)c2ccccc12 [Benzydamine hydrochloride],1.09
15,CCc1nc(C(N)=O)c(Nc2ccc(N3CCC(N4CCN(C)CC4)CC3)c(OC)c2)nc1NC1CCOCC1 [Gilteritinib],0.363
16,C#C[C@]1(O)CC[C@H]2[C@@H]3[C@H](C)CC4=C(CCC(=O)C4)[C@H]3CC[C@@]21C [Tibolone],0.945
17,CC(C)(C)c1cc(C(=O)C(C#N)=NNc2cccc(Cl)c2)no1,1.27
18,COc1ccc(CC(=O)Nc2nc3c(s2)CCc2ccccc2-3)cc1OC,1.14
19,CC(=O)OCC(=O)[C@@]1(O)CC[C@H]2[C@@H]3CCC4=CC(=O)CC[C@]4(C)[C@H]3C(=O)C[C@@]21C [Cortisone acetate],1.18
20,CCOC(=O)N1CCC(NCCNC(=O)c2ccccc2C)CC1,1.1
21,COc1cc2nc(N3CCN(C(=O)C4CCCO4)CC3)nc(N)c2cc1OC (stereo not drawn) [Terazosin hydrochloride],1.07
22,Nc1nccc(Oc2ccc3c(C(=O)Nc4cccc(C(F)(F)F)c4)cccc3c2)n1,1.15
23,CN1CCN(c2cccc(Nc3nc4c(-c5ccc(S(C)(=O)=O)cc5)cccn4n3)c2)CC1,1.19
24,O=C(/C=C/c1ccc2ccc(C(F)(F)F)cc2n1)c1ccncc1,1.16

row,SMILES,cell viability
1,CN(C)C/C=C/C(=O)Nc1ccc(C(=O)N2CCC[C@@H](Nc3ncc(Cl)c(-c4c[nH]c5ccccc45)n3)C2)cc1,0.931
2,CN[C@@H](C)C(=O)N[C@H](C(=O)N1CCC[C@H]1C(=O)Nc1snnc1-c1ccccc1)C1CCCCC1,1.01
3,NC(=O)[C@@H]1CC[C@@H]2CN1C(=O)N2OS(=O)(=O)O [Avibactam sodium],0.907
4,COC(=O)[C@@H](N)Cc1cnc[nH]1 [Methyl L-histidinate dihydrochloride],1.05
5,Cc1cc(N2C[C@@H](C)N[C@@H](C)C2)ncc1-c1ccc(-c2nc3c(ccn3C)c(=O)[nH]2)cc1,0.964
6,O=C(O)CCN1C(=O)/C(=C/c2ccc(-c3ccc([N+](=O)[O-])cc3)o2)SC1=S,0.968
7,CC(=O)OC/C=C(C)/C=C/C=C(C)/C=C/C1=C(C)CCCC1(C)C [Retinyl acetate],1.04
8,NS(=O)(=O)c1cc2c(cc1Cl)N=C(CSCc1ccccc1)NS2(=O)=O [Benzthiazide],0.933
9,O=C1C(CC[S+]([O-])c2ccccc2)C(=O)N(c2ccccc2)N1c1ccccc1 (stereo not drawn) [Sulfinpyrazone],1.11
10,Cc1cnc(Nc2ccc(N3CCN(C)CC3)cc2)nc1Nc1cccc(S(=O)(=O)NC(C)(C)C)c1,0.79
11,O=C1NC(=O)/C(=C/c2ccc(-c3ccc(F)cc3O)o2)S1,1.09
12,CC(C)CCN1c2nc(Nc3cc(F)c(O)c(F)c3)ncc2N(C)C(=O)C1C (stereo not drawn),1.03
13,CCCCCCCCCCCCCCCCCC(=O)O [Stearic acid],1.05
14,CN1CCN(CCCNc2ncc(Cl)c(-c3cc4c(C(=O)NC5CC5)cccc4s3)n2)CC1,1.07
15,CC[C@@]1(O)C(=O)OCc2c1cc1n(c2=O)Cc2cc3cc(O)ccc3nc2-1 [Hydroxy Camptothecine],0.0691
16,CC[C@@]1(O)C(=O)OCc2c1cc1n(c2=O)Cc2cc3cc(O)ccc3nc2-1 [10-Hydroxycamptothecin],0.0838
17,OCC1(O)COc2cc(O)ccc2-c2cc(O)c(O)cc2C1 (stereo not drawn) [Protosappanin B],1.04
18,CC[C@H](C)n1cc(C)c2c(C(=O)NCc3c(C)cc(C)[nH]c3=O)cc(-c3ccc(N4CCNCC4)nc3)cc21,1.25
19,Nc1cccc(S(=O)(=O)N2CCCN(S(=O)(=O)c3ccc4c(c3)OCCO4)CC2)c1,1.15
20,COc1ccc(-c2oc3c(CC=C(C)C)c(O)cc(O)c3c(=O)c2O[C@@H]2O[C@@H](C)[C@H](O)[C@@H](O)[C@H]2O)cc1 [Baohuoside I],1.17
21,Cc1cccc(-c2[nH]c(C(C)(C)C)nc2-c2ccc3nccnc3c2)n1,0.984
22,CC1(C)OC(=O)C=C[C@]2(C)[C@H]3CC[C@@]4(C)[C@H](c5ccoc5)OC(=O)[C@H]5O[C@]54[C@]3(C)C(=O)C[C@@H]12 [Obacunone],1.09
23,C[C@@H](c1ncncc1F)[C@](O)(Cn1cncn1)c1ccc(F)cc1F [Voriconazole],1.02
24,Cc1c(NC(=O)c2ccc(C(C)(C)C)cc2)cccc1-c1cn(C)c(=O)c(Nc2ccc(C(=O)N3CCOCC3)cc2)n1,0.848
